Source: the supplement of paper PMC4967469
The IC50 comes from the fitted curve, where viability falls to half of the control; a limit (>, <) means that the fit lies beyond the doses tested. AUC, from the same fit, is the share of area under the viability curve across the 256-fold dose range; the more sensitive the line, the further below 1. For some of these results: Any top dose called inferred comes from the curve model; the source does not state it.

Key:
Assay in all cases: Viability of human cancer cell lines after 72 h of drug (GDSC screen)
Vorinostat = compound: O=C(CCCCCCC(=O)Nc1ccccc1)NO [Vorinostat]; conditions: top dose 10 µM
Procedure: (§1)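 Human cancer cell lines in 384-well plates, medium with 10% serum, drug for 72 h over a 256-fold dose range (nine 2-fold or five 4-fold steps up to the top dose). Adherent lines were fixed and stained with the nucleic acid dye Syto60, suspension lines read with resazurin; signal relative to control wells, capped at 0 and 100%. One two-parameter sigmoid per drug and line, fitted in a mixed model over all curves with the slope shared within a line.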

Dabrafenib = compound: CC(C)(C)c1nc(-c2cccc(NS(=O)(=O)c3c(F)cccc3F)c2F)c(-c2ccnc(N)n2)s1 [Dabrafenib]; conditions: top dose 10 µM
Procedure: as §1

Methotrexate = compound: CN(Cc1cnc2nc(N)nc(N)c2n1)c1ccc(C(=O)N[C@@H](CCC(=O)O)C(=O)O)cc1 [Methotrexate]; conditions: top dose 0.2 µM
Procedure: as §1

SN-38 = compound: CCc1c2c(nc3ccc(O)cc13)-c1cc3c(c(=O)n1C2)COC(=O)[C@]3(O)CC [SN-38]; conditions: top dose 0.05 µM; top dose inferred
Procedure: as §1

Axitinib = compound: CNC(=O)c1ccccc1Sc1ccc2c(/C=C/c3ccccn3)n[nH]c2c1 [Axitinib]; conditions: top dose 2 µM
Procedure: as §1

Cell Line	AUC (Vorinostat)	IC50 (Vorinostat) [µM]	AUC (Dabrafenib)	IC50 (Dabrafenib) [µM]	AUC (Methotrexate)	IC50 (Methotrexate) [µM]	AUC (SN-38)	IC50 (SN-38) [µM]	AUC (Axitinib)	IC50 (Axitinib) [µM]
NCI-H810 (large cell lung carcinoma, adherent)	0.741	2.95	0.987	> 10	0.985	> 0.2	0.667	0.00891	0.961	> 2
NCI-H2087 (lung adenocarcinoma, semi-adherent)	0.879	> 10	0.813	5.91	0.983	> 0.2	0.553	0.0044	0.986	> 2
K5 (thyroid, adherent)	0.69	2.07	0.061	< 0.0391	0.765	0.0703	0.579	0.00509	0.978	> 2
OACp4C (oesophagus, adherent)	0.617	1.4	0.958	> 10	0.903	> 0.2	0.905	> 0.05	0.909	> 2
HO-1-u-1 (head and neck, adherent)	0.636	1.46	0.96	> 10	0.934	> 0.2	0.676	0.00948	0.943	> 2
NY (osteosarcoma, adherent)	0.764	3.59	0.982	> 10	0.835	0.13	0.648	0.00796	0.951	> 2
KYAE-1 (oesophagus, suspension)	0.571	1	0.976	> 10	0.948	> 0.2	0.93	> 0.05	0.973	> 2
CCF-STTG1 (glioma, adherent)	0.873	9.73	0.987	> 10	0.985	> 0.2	0.687	0.0105	0.848	1.51
CW-2 (large intestine, adherent)	0.796	5.11	0.988	> 10	0.989	> 0.2	0.842	0.0391	0.988	> 2
D-336MG (glioma, adherent)	0.896	> 10	0.974	> 10	0.939	> 0.2	0.805	0.0344	0.974	> 2
LNZTA3WT4 (glioma, adherent)	0.766	3.63	0.966	> 10	0.913	> 0.2	0.651	0.0081	0.943	> 2
NCI-H1755 (lung adenocarcinoma, adherent)	0.857	> 10	0.894	> 10	0.902	> 0.2	0.92	> 0.05	0.947	> 2
OV-7 (ovary, adherent)	0.72	3.68	0.854	> 10	0.946	> 0.2	0.74	0.0222	0.945	> 2
H2369 (mesothelioma, adherent)	0.721	2.72	0.829	6.51	0.967	> 0.2	0.709	0.0125	0.881	> 2
JHU-022 (head and neck, adherent)	0.595	1.22	0.905	> 10	0.948	> 0.2	0.614	0.00703	0.862	> 2
VMRC-RCZ (kidney, adherent)	0.86	> 10	0.85	9.62	0.973	> 0.2	0.76	0.0204	0.941	> 2
NCI-H835 (lung carcinoid, suspension)	0.642	1.51	0.99	> 10	0.87	0.17	0.974	> 0.05	0.964	> 2
KMS-11 (myeloma, suspension)	0.704	2.12	0.957	> 10	0.772	0.0662	0.965	> 0.05	0.977	> 2
UM-UC-3 (bladder, adherent)	0.789	4.11	0.952	> 10	0.987	> 0.2	0.578	0.00503	0.946	> 2
BT-483 (breast, adherent)	0.831	> 10	0.971	> 10	0.977	> 0.2	0.934	> 0.05	0.974	> 2

Cell Line	AUC (Vorinostat)	IC50 (Vorinostat) [µM]	AUC (Dabrafenib)	IC50 (Dabrafenib) [µM]	AUC (Methotrexate)	IC50 (Methotrexate) [µM]	AUC (SN-38)	IC50 (SN-38) [µM]	AUC (Axitinib)	IC50 (Axitinib) [µM]
Caov-4 (ovary, adherent)	0.841	> 10	0.974	> 10	0.98	> 0.2	0.624	0.00806	0.908	> 2
G-MEL (melanoma, adherent)	0.417	0.372	0.037	< 0.0391	0.976	> 0.2	0.476	0.00269	0.939	> 2
TOV-112D (ovary, adherent)	0.57	0.969	0.861	8.6	0.912	> 0.2	0.618	0.00661	0.937	> 2
NCI-H2029 (small cell lung carcinoma, adherent)	0.862	7.24	0.992	> 10	0.992	> 0.2	0.907	> 0.05	0.959	> 2
NCI-H2444 (non-small cell lung carcinoma, adherent)	0.785	4.89	0.986	> 10	0.988	> 0.2	0.957	> 0.05	0.983	> 2
KP-1N (pancreas, adherent)	0.897	> 10	0.956	> 10	0.858	0.177	0.889	> 0.05	0.969	> 2
JHU-029 (head and neck, adherent)	0.615	1.4	0.964	> 10	0.945	> 0.2	0.485	0.00282	0.928	> 2
KCL-22 (chronic myeloid leukaemia, suspension)	0.674	1.74	0.892	8.43	0.684	0.0371	0.814	0.0218	0.74	0.527
MOLM-16 (acute myeloid leukaemia, suspension)	0.445	0.452	0.919	> 10	0.924	> 0.2	0.533	0.0038	0.886	1.75
HT-115 (large intestine, adherent)	0.769	3.45	0.96	> 10	0.983	> 0.2	0.802	0.022	0.971	> 2
ES1 (Ewing sarcoma, adherent)	0.63	1.42	0.754	3.33	0.858	0.161	0.326	0.00103	0.93	> 2
VA-ES-BJ (soft tissue, adherent)	0.614	1.31	0.977	> 10	0.974	> 0.2	0.644	0.00804	0.888	> 2
MS-1 (small cell lung carcinoma, suspension)	0.555	0.867	0.99	> 10	0.607	0.0238	0.917	> 0.05	0.977	> 2
KARPAS-231 (B-cell leukaemia, suspension)	0.461	0.502	0.994	> 10	0.569	0.0184	0.357	0.00139	0.926	1.94
H2731 (mesothelioma, adherent)	0.741	3.42	0.936	> 10	0.984	> 0.2	0.891	> 0.05	0.861	> 2
MONO-MAC-6 (acute myeloid leukaemia, suspension)	0.493	0.598	0.769	4	0.379	0.00569	0.575	0.00508	0.942	> 2
HT-1197 (bladder, adherent)	0.836	8.41	0.968	> 10	0.964	> 0.2	0.969	> 0.05	0.984	> 2
TGW (neuroblastoma, adherent)	0.556	0.871	0.988	> 10	0.654	0.0312	0.933	> 0.05	0.911	> 2
OCUB-M (breast, adherent)	0.828	5.06	0.967	> 10	0.99	> 0.2	0.244	0.000649	0.981	> 2
LS-123 (large intestine, adherent)	0.778	5.51	0.958	> 10	0.974	> 0.2	0.931	> 0.05	0.981	> 2
